# Screen size: about 110,000 compounds; about 40 (0.04%) were called active. This list was built around the results that the source calls inconclusive (neither active nor inactive); the mix of calls is not that of the screen. Calls come from the whole dose curve; as a rule, active = well fitted curve in the direction sought with a large enough effect in the signal ratio (not every such curve was filed as active); inconclusive = small, poorly fitted or top-dose-only effect, or a change in a side signal; inactive = flat fitted curve, though single readings scatter; the % refers to the signal ratio. Potencies of inconclusive entries are doubtful fits and often do not repeat.
# Test: IkB Signaling;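 for IkBa stabilization activation: 0% = basal untreated cells and 100% = reference inhibitor full response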
# Settings: ABC-DLBCL IkBa-CBG/CBR dual luciferase ratio (green luciferase fused to IkBa over red control in OCI-Ly3 lymphoma cells), 4 h; IkBa stabilization activation: at 57.1 µM (top of the series), scaled: untreated 0%, proteasome inhibitor 100% unless noted
# Method in brief: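 Curves were fitted separately to fusion (green), unfused (red) and ratio luminescence, then classed by r2, magnitude and activity. Cells: OCI-Ly3, 4 h compound plus doxycycline at 37C; 10 uM MG-132 defined full response.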
# Potency is the fitted concentration of half-maximal effect.
SMILES,IkBa stabilization activation,Potency
CN(C(=O)CSc1nc2ccccc2n1CC(=O)N(C)c1ccc(F)cc1)c1ccccc1,inconclusive: -1.79% [signal inhibitor],–
COc1cc(NC(=O)c2cc(-c3ccc(Cl)c(Cl)c3)on2)cc(OC)c1OC,inactive,–
O=C(CCN1CCCCC1)c1ccc2c(c1)OCCO2,inconclusive: 9.67% [signal inhibitor],–
COc1ccc(N2CCN(C(=O)C3CCN(S(=O)(=O)Cc4ccccc4)CC3)CC2)cc1,inconclusive: 1.32% [signal inhibitor],–
Cc1ccc(CNC(=O)CN2C(=O)C3(SCC(=O)N3c3cc(C)cc(C)c3)c3ccccc32)cc1 (configuration not stated),inconclusive: 7.67% [signal inhibitor],–
Cc1nnc(SCC(=O)Nc2nc3c(s2)CC(C)CC3)s1 (configuration not stated),inconclusive: 3.98% [signal inhibitor],–
c1ccc(-n2c(SCc3nc(-c4cccs4)no3)nnc2-c2ccco2)cc1,inconclusive: 9.25% [signal inhibitor],–
Cc1nc(-c2cccc(F)c2)sc1CCNC(=O)c1ccc(F)c(F)c1,inconclusive: 3.46% [signal inhibitor],–
CCN1C(c2ccc(F)cc2)=CS/C1=C(\C#N)c1nnc2n1-c1ccccc1SC2,inconclusive: 3.8% [signal inhibitor],–
COC(=O)C1C(=O)c2c([nH]c(C(=O)OC3CCCCC3)c2C)CC1C (configuration not stated),inactive,–
COc1cc(NC(=O)Cc2ccc(Cl)cc2)ccc1NC(=O)c1ccco1,inactive,–
c1cncc(CNc2nc(-c3cccnc3)nc3ccccc23)c1,"inactive: -1.45% [at 11.4 µM, scaled: untreated 0%, proteasome inhibitor 100%]",–
O=C(CSc1nnc(-c2ccco2)n1-c1ccccc1)N1CCOCC1,inactive,–
Cn1c(=O)c2sccc2n2c(CCC(=O)N3CCN(c4cccc(Cl)c4)CC3)nnc12,inconclusive: 12.8% [signal inhibitor],–
CCCCC(=O)Nc1nnc(S(=O)(=O)N(CC)c2cc(C)cc(C)c2)s1,inconclusive: -0.351% [signal inhibitor],–
CCCCOC(=O)c1ccc(Nc2nc3ccccc3c3nnc(C)n23)cc1,inconclusive: 10.4% [signal inhibitor],–
CCOc1ccc(/C=C(\C#N)C(=O)Nc2sc3c(c2C(=O)OC)C(C(=O)OC)CC3)cc1OC (configuration not stated),–,"inconclusive: 25.1 µM [signal activator, single point]"
Cc1ccsc1-c1nc(CSCC(=O)N2CCN(c3ccccc3)CC2)c(C)o1,inconclusive: 0.804% [signal inhibitor],–
CCOC(=O)c1c(C)[nH]c(C)c1C(=O)CSc1nnnn1-c1ccccc1,inactive,–
COc1ccc(-c2ccc(-c3nnc(-c4ccncc4)o3)cc2)cc1,inconclusive: 1.87% [signal inhibitor],–
O=C(Cn1c(=O)n(Cc2ccc(C(=O)NCc3ccccc3Cl)cc2)c(=O)c2ccccc21)Nc1ccc(F)c(Cl)c1,inconclusive: 4.73% [signal inhibitor],–

SMILES,IkBa stabilization activation,Potency
CCc1cccc(C)c1NC(=O)CN1C(=O)C2(SCC(=O)N2c2cc(C)cc(C)c2)c2ccccc21 (configuration not stated),inconclusive: 4.64% [signal inhibitor],–
COc1cccc(C(=O)Nc2ccccc2-c2nc3ccccc3s2)c1,inactive,–
Cc1ccc(-c2nc(CS(=O)(=O)CC(=O)NCc3ccccc3Cl)c(C)o2)cc1,inconclusive: 0.368% [signal inhibitor],–
Cc1ccccc1CNC(=O)c1sc2ncnc(N(C)C3CCCCC3)c2c1C,inconclusive: -0.722% [signal inhibitor],–
COc1ccccc1NC(=O)N(Cc1ccco1)Cc1cc2ccc(C)c(C)c2[nH]c1=O,–,"inconclusive: 31.6 µM [signal inhibitor, partial curve]"
O=S(=O)(c1ccc2[nH]c3c(c2c1)CCCCC3)N1CCN(c2cccc(Cl)c2)CC1,inconclusive: 1.63% [signal inhibitor],–
Cc1oc(-c2cccc(Cl)c2)nc1CN1CCCC(C(=O)NCc2ccc(Cl)cc2)C1 (configuration not stated),inconclusive: -0.808% [signal inhibitor],–
Cc1cc(C)n(-c2ccc(C(=O)Nc3sccc3C(N)=O)cc2)n1,inconclusive: 3.68% [signal inhibitor],–
Cc1ccc(Nc2nc(N3CCOCC3)nc(N3CCOCC3)n2)cc1,inactive,–
CC(C)(C)Cn1nc(-c2ccc(Cl)cc2)c2c(N)ncnc21,inactive,–
Cc1cc(C)cc(OCC(=O)N(Cc2ccc(Cl)cc2)CC2CCCO2)c1 (configuration not stated),inconclusive: 0.791% [signal inhibitor],–
c1ccc(CCNc2nc3ccccc3n3nnnc23)cc1,–,"inconclusive: 15.8 µM [signal inhibitor, partial curve]"
O=C(NC1CCCC1)c1ccc2c(=O)n(Cc3ccccc3)c(SCc3ccccc3)nc2c1,inconclusive: -2.31% [signal inhibitor],–
Cc1ccc(Nc2nc(Nc3ccc(C)c(C)c3)nc(N3CCOCC3)n2)cc1C,inconclusive: 8.66% [signal inhibitor],–
COCCn1nnnc1C(c1cccs1)N1CCN(c2cc(C)ccc2C)CC1 (configuration not stated),inconclusive: 3.27% [signal inhibitor],–
COc1ccc(N2CCN(CCCNC(=O)c3cc(Nc4ccccc4OC)nc4ccccc34)CC2)cc1,inconclusive: 0.176% [signal inhibitor],–
N#CC1=C(N)C(C#N)(C#N)C(c2cccnc2)C2COCC=C12 (configuration not stated),inconclusive: 8.9% [signal activator],–
COc1ccc(S(=O)(=O)N2CCCC(C(=O)Nc3cccnc3)C2)cc1Cl (configuration not stated),inconclusive: 7.91% [signal inhibitor],–
CCc1ccc(NC(=O)C2=CC(c3ccc4c(c3)OCO4)=NS(=O)(=O)N2C)cc1,inconclusive: 2.14% [signal inhibitor],–
COc1ccccc1CNC(=O)CSc1ncc2c(n1)-c1cc(Cl)ccc1N(Cc1ccccc1)S2(=O)=O,inconclusive: 1.01% [signal inhibitor],–
Cc1c(C(=O)N(Cc2ccc(Cl)cc2)CC2CCCO2)oc2ccc(F)cc12 (configuration not stated),inconclusive: -0.54% [signal inhibitor],–

# — PubChem BioAssay AID445 (National Center for Advancing Translational Sciences (NCATS), 2006)
